# Laboratory results: the supplement of paper PMC7826260
# Some of the results follow. Each Rep nickase domain was tested in vitro on the same pool of single strands at 3 µM enzyme and 37 °C for 1 h; the strands have 90 letters, of which the middle is given. The score is log2 (uncut reads / reads without enzyme); the lower, the more was cut; hits are not called. Reads are scaled to the total, so uncut sequences can rise above 0 when many others are cut.
# Test system: T1, Rep nickase domain of cabbage leaf curl virus
# T1 sequence (residues 1-116 of Rep, tag left off): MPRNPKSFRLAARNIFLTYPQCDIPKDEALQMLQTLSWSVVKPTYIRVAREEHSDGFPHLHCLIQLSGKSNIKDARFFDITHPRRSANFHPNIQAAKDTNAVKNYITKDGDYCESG
# Assay: uncleaved DNA left, log2 of reads against the no-enzyme library (log2 ratio); higher = less cleavage (more negative = more Rep cleavage of the k-mer); sequences stand for … in CTCGTCCG…ACCGGAGA
# Procedure: (§1)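 A pool of 90-nt single-stranded DNAs with seven random bases just before the constant AC of the nick site (name = the seven bases) was cut by 3 µM recombinant His6-SUMO-tagged Rep nickase domain (300 nM DNA, 50 mM HEPES pH 8.0, 50 mM NaCl, 1 mM MnCl2, 1 h, 37 °C, three replicates). Uncut DNA was amplified and sequenced.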
row,Sequence,uncleaved DNA left (log2)
1,CACGTGG,-0.00324
2,CCGGTAT,0.311
3,GAAAATG,-0.0665
4,GATGAGG,0.418
5,CGCTATC,0.169
6,GATCTGT,0.174
7,GCATTCG,-0.663
8,GTAGCCT,0.317
9,TTCTAAC,-0.113
10,AGCTATA,-0.129
11,GTCGTTA,0.151
12,AGTCCTC,0.282
13,CAAATAT,-2.26
14,GTGGAAT,0.708
15,TCTCTCG,-0.836
16,GCGACTG,-0.0356
17,ATGTTTG,-0.387
18,CCGTCAC,-0.00141
19,AATACTC,-0.0327
20,CATGCCG,-0.722

row,Sequence,uncleaved DNA left (log2)
1,ACACGAA,-0.544
2,GGTTCCC,0.267
3,GAAAAGA,0.217
4,AGAGGGG,0.508
5,ATACTGC,-0.334
6,ACGTACT,-0.6
7,AAACACT,-1.7
8,GTTCGCG,-0.862
9,CTATTCC,0.0188
10,TGGAGAT,0.606
11,TCGATTA,-0.155
12,TAAGCGC,-0.792
13,TGGGAGA,0.828
14,GATACTG,0.11
15,TACATTT,-3.26
16,TAAACTA,-1.73
17,AGCAACT,0.159
18,CATATAC,-0.152
19,AGCTGAG,-0.419
20,TTGAAAG,-0.751

# Test system: T2, Rep nickase domain of chickpea chlorotic dwarf virus
# T2 sequence (residues 1-124 of Rep, tag left off): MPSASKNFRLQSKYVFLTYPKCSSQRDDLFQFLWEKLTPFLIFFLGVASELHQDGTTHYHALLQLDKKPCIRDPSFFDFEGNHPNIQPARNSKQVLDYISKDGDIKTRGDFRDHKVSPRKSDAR
# Assay: as above
# Procedure: as §1
row,Sequence,uncleaved DNA left (log2)
1,CACGTGG,0.206
2,CCGGTAT,0.458
3,GAAAATG,-0.263
4,GATGAGG,1.08
5,CGCTATC,0.046
6,GATCTGT,0.445
7,GCATTCG,0.539
8,GTAGCCT,0.667
9,TTCTAAC,-1.25
10,AGCTATA,-0.418
11,GTCGTTA,0.618
12,AGTCCTC,0.634
13,CAAATAT,-2.63
14,GTGGAAT,1.62
15,TCTCTCG,-0.506
16,GCGACTG,0.54
17,ATGTTTG,-0.494
18,CCGTCAC,-0.146
19,AATACTC,-1.16
20,CATGCCG,0.189

row,Sequence,uncleaved DNA left (log2)
1,ACACGAA,-0.412
2,GGTTCCC,0.86
3,GAAAAGA,0.347
4,AGAGGGG,0.941
5,ATACTGC,-0.503
6,ACGTACT,-2.5
7,AAACACT,-2.84
8,GTTCGCG,0.214
9,CTATTCC,-0.0645
10,TGGAGAT,1.93
11,TCGATTA,-0.968
12,TAAGCGC,-0.624
13,TGGGAGA,1.66
14,GATACTG,0.971
15,TACATTT,-3.19
16,TAAACTA,-2.83
17,AGCAACT,0.174
18,CATATAC,-1.12
19,AGCTGAG,-0.0738
20,TTGAAAG,-0.778

# Test system: T3, Rep nickase domain of faba bean necrotic yellows virus
# T3 sequence (residues 1-98 of Rep, tag left off): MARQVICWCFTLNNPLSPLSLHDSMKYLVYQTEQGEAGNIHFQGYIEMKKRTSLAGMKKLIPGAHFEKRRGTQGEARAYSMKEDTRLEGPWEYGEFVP
# Assay: as above
# Procedure: as §1
row,Sequence,uncleaved DNA left (log2)
1,CACGTGG,-0.0823
2,CCGGTAT,-0.0572
3,GAAAATG,0.0447
4,GATGAGG,0.0658
5,CGCTATC,-0.0243
6,GATCTGT,0.0746
7,GCATTCG,-0.0132
8,GTAGCCT,-0.0356
9,TTCTAAC,0.107
10,AGCTATA,-0.000503
11,GTCGTTA,-0.0293
12,AGTCCTC,0.0222
13,CAAATAT,0.0987
14,GTGGAAT,-0.0801
15,TCTCTCG,0.127
16,GCGACTG,-0.0304
17,ATGTTTG,0.0577
18,CCGTCAC,-0.0633
19,AATACTC,-0.086
20,CATGCCG,0.0351

row,Sequence,uncleaved DNA left (log2)
1,ACACGAA,-0.057
2,GGTTCCC,-0.138
3,GAAAAGA,0.0114
4,AGAGGGG,0.178
5,ATACTGC,0.0608
6,ACGTACT,-1.35
7,AAACACT,-0.0433
8,GTTCGCG,0.00867
9,CTATTCC,0.0652
10,TGGAGAT,0.0579
11,TCGATTA,0.00604
12,TAAGCGC,0.0222
13,TGGGAGA,0.0963
14,GATACTG,0.0219
15,TACATTT,-0.118
16,TAAACTA,0.132
17,AGCAACT,0.0606
18,CATATAC,-0.0264
19,AGCTGAG,0.11
20,TTGAAAG,0.042
